These results are taken from the supplement of paper PMC10126150.

Values marked as one replicate rest on one cluster of the flow cell; about a third of the high ones do not repeat.

The series concerns ATP. Description: switch fluorescence ratio, 500 uM ATP over buffer (Cy3 cluster intensity, sum of 5 cycles each) (fold (ratio)); higher = stronger signal-on switching upon ATP binding; sequences stand for … in TCGTCGGCAGCGTCAGATGTGTATAAGAGACAGTTTTTTTTTTTTTTTTTTTTTTTTT…TC. Conditions: aptamer strand: ATP DNA aptamer (quencher-CACCTGGGGGAGTATTGCGGAGGAAGG + anchor), 100 nM annealed; ATP concentration: 500 uM; one replicate. In outline: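 Exposure to 500 uM ATP lasted 15 min at 22 °C before imaging, and a selection-buffer image was taken beforehand, for Cy3-labelled switching-strand clusters on a modified Illumina MiSeq flow-cell annealed to 100 nM quencher-labelled ATP aptamer. Five buffer/ATP cycles were run with NaOH stripping and re-annealing between them. The fluorescence ratio per cluster is summed target-cycle over summed buffer-cycle Cy3 intensity, averaged per switch-domain sequence. Clusters outside 100-1000 RFU were excluded.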
Take GGTAGGGGAA: the switch fluorescence ratio is 0.981.

For the sequence TCTTTTAACC, the switch fluorescence ratio was found to be 0.927.

Turning to ACTAACAATA, the switch fluorescence ratio was 1.11.

On to CTATTCTAAT, for which the switch fluorescence ratio amounted to 0.975.

As to ACAAACGG, the switch fluorescence ratio was found to be 1.39.

As for ACACACTAGT, the switch fluorescence ratio is 1.4.

Take CAAGTCAGC: the switch fluorescence ratio worked out at 0.997.

Turning to GACTCAATTG, the switch fluorescence ratio came to 1.02.

As for CAGTGGAAGT, the switch fluorescence ratio stood at 0.983.

With GCGGGGATGG, the switch fluorescence ratio turned out to be 0.96.

As for TCGGTTATG, the switch fluorescence ratio worked out at 1.01.

AAACAGTCTG: the switch fluorescence ratio was determined as 0.996.

As to AAGGTCATGT, the switch fluorescence ratio is 0.997.

On to GCCCTTAGTT, for which the switch fluorescence ratio worked out at 0.994.

On to GCACCTCCGA, for which the switch fluorescence ratio worked out at 2.38.

Take TGTGGTATGT: the switch fluorescence ratio came to 0.999.

In the case of TGCGTAACGC, the switch fluorescence ratio was 0.975.

In the case of GTCCTGATCA, the switch fluorescence ratio is 1.01.

With CGTGTACGCT, the switch fluorescence ratio is 0.969.

For the sequence TTCTTATGGG, the switch fluorescence ratio was determined as 0.997.

On to TCTGTACACC, for which the switch fluorescence ratio amounted to 1.06.

CTGATGGGAA: the switch fluorescence ratio was 1.09.

In the case of CGTGTCTAAA, the switch fluorescence ratio turned out to be 1.01.

Take GTGGTAAAAT: the switch fluorescence ratio is 0.998.

Take GTATATAATA: the switch fluorescence ratio turned out to be 1.02.

Take GGAGGGAATT: the switch fluorescence ratio was 1.

Consider ACGGGCTTTG, for which the switch fluorescence ratio turned out to be 1.07.

Take CAATATGGGC: the switch fluorescence ratio was 0.975.

In the case of CCATGGCAGA, the switch fluorescence ratio came out at 1.07.

Turning to AGTGATGAAC, the switch fluorescence ratio was determined as 0.979.

Regarding ATCTTTCAAC, the switch fluorescence ratio was 0.976.

On to GGTATTCGTA, for which the switch fluorescence ratio stood at 0.958.

As to CAAGCGGTCT, the switch fluorescence ratio is 0.976.

As to ACCAACTCGT, the switch fluorescence ratio stood at 1.01.

Turning to GCCTAAGC, the switch fluorescence ratio was found to be 0.977.

For GGGTTTTTT, the switch fluorescence ratio amounted to 0.947.

Consider AGGGCGTAAA, for which the switch fluorescence ratio is 1.02.

CGGCCTGGGC: the switch fluorescence ratio was 1.03.

On to TGGTATCTCG, for which the switch fluorescence ratio came out at 0.97.

For TGCGACTTGC, the switch fluorescence ratio is 1.14.

Turning to CAAAGTATTT, the switch fluorescence ratio was 0.967.

Turning to ATTACCCCAG, the switch fluorescence ratio was 1.9.

Consider TTTCGAAGTG, for which the switch fluorescence ratio is 0.988.

On to GAGACTGTAG, for which the switch fluorescence ratio was determined as 1.02.

On to TGGCACCGCT, for which the switch fluorescence ratio was determined as 1.01.

On to TTACAGGGCA, for which the switch fluorescence ratio stood at 1.02.

ACTTTGACCA: the switch fluorescence ratio was 1.12.

As to GGATACATCA, the switch fluorescence ratio was determined as 0.999.

TTCCAGTGCT: the switch fluorescence ratio was 1.4.

Turning to CTACCGGTGG, the switch fluorescence ratio was 1.

Take CCGGAACGCT: the switch fluorescence ratio stood at 1.26.

Regarding CGCTGATACA, the switch fluorescence ratio was 1.62.

As for GATTTTGCCT, the switch fluorescence ratio was determined as 0.98.

For ATTATATTGA, the switch fluorescence ratio amounted to 0.987.

In the case of TGACATTA, the switch fluorescence ratio was 1.04.

CGGCATTGCA: the switch fluorescence ratio was found to be 1.03.

With TTACAGTCGC, the switch fluorescence ratio was 1.1.

Consider ATCCAAGACG, for which the switch fluorescence ratio came to 1.02.

ATGGAACCCG: the switch fluorescence ratio was found to be 1.02.

For TGCCGACGTG, the switch fluorescence ratio came out at 0.973.

Regarding ACTGGCTGCG, the switch fluorescence ratio turned out to be 0.982.

With AATTAAAACG, the switch fluorescence ratio was 1.02.

For the sequence GACGGTTTTG, the switch fluorescence ratio was 1.01.

As to CTTGGTAGCG, the switch fluorescence ratio amounted to 1.03.

In the case of GATGACGGAC, the switch fluorescence ratio is 1.14.

As to CTCTATCCGG, the switch fluorescence ratio came to 0.98.

Turning to TGGATTTAAC, the switch fluorescence ratio stood at 1.

As to AATCCTGCAC, the switch fluorescence ratio was found to be 1.34.

For TTGTTACCGG, the switch fluorescence ratio stood at 1.02.

In the case of GTTAGCAGAG, the switch fluorescence ratio was 1.04.

Regarding ACTGATTA, the switch fluorescence ratio is 1.03.

In the case of ATTCACTAT, the switch fluorescence ratio turned out to be 1.03.

As for GTTAAAGGAA, the switch fluorescence ratio was found to be 1.01.

On to GCCTATATAA, for which the switch fluorescence ratio was found to be 1.1.

Take CAGTTGCATC: the switch fluorescence ratio stood at 1.02.

On to TGTATGCTGA, for which the switch fluorescence ratio was 0.943.

With AGGTAGAGG, the switch fluorescence ratio amounted to 1.05.

Take TTATGAGAGA: the switch fluorescence ratio worked out at 0.996.

Consider GACGTCTATG, for which the switch fluorescence ratio was 1.01.

Regarding CCGCGAACGT, the switch fluorescence ratio amounted to 1.54.

Turning to TGGAGCCGTT, the switch fluorescence ratio is 1.2.

For the sequence GGGTGACTAG, the switch fluorescence ratio was 0.97.

Turning to AGGAATGCGA, the switch fluorescence ratio is 1.22.

On to AGGCTATTT, for which the switch fluorescence ratio is 0.988.

With GTCGAAGAAA, the switch fluorescence ratio worked out at 0.974.

On to TTTGGGGATC, for which the switch fluorescence ratio amounted to 0.979.

In the case of CGTTAGTGGT, the switch fluorescence ratio was determined as 0.959.

On to GTATTTGACA, for which the switch fluorescence ratio was found to be 1.13.

On to TGAGGGAGAA, for which the switch fluorescence ratio came to 1.02.

Turning to CAGTTGGCTT, the switch fluorescence ratio is 0.979.

For the sequence ATCGACAGCA, the switch fluorescence ratio stood at 1.12.

As to GCTCAAATGT, the switch fluorescence ratio worked out at 1.01.

In the case of TGACTGTGGG, the switch fluorescence ratio was determined as 0.957.

On to ATTGACAGGT, for which the switch fluorescence ratio was found to be 1.01.

GCGCAGTTTC: the switch fluorescence ratio worked out at 1.31.

For GTGAACGGGA, the switch fluorescence ratio was determined as 1.02.

TCGCGA: the switch fluorescence ratio was 1.07.

On to GATGCGCGGA, for which the switch fluorescence ratio is 0.947.

With AGGACATGGT, the switch fluorescence ratio turned out to be 0.988.

Regarding CTCGAATTGA, the switch fluorescence ratio stood at 0.984.

In the case of GGCGAAAAAT, the switch fluorescence ratio turned out to be 0.988.

As for ACATTTGACT, the switch fluorescence ratio came out at 0.992.

ATTCAGTTCG: the switch fluorescence ratio came out at 1.02.

In the case of TCCCATTGAA, the switch fluorescence ratio amounted to 0.994.

Consider TACAGGGAC, for which the switch fluorescence ratio was found to be 1.02.

Regarding TTGTTTAGCA, the switch fluorescence ratio worked out at 0.977.

For the sequence ACATTTACT, the switch fluorescence ratio turned out to be 1.24.

For TGCGTAAACG, the switch fluorescence ratio worked out at 1.07.

ACTTTCGGA: the switch fluorescence ratio was 1.04.

With GAGTCATTTG, the switch fluorescence ratio stood at 1.

With GGAATGCGGA, the switch fluorescence ratio was 1.05.

Take AATTGGCAAC: the switch fluorescence ratio is 0.989.

Turning to ATCCTCGGGG, the switch fluorescence ratio was 1.26.

Consider AGCCCTCCGG, for which the switch fluorescence ratio was determined as 1.21.

Turning to TTAGGATTTG, the switch fluorescence ratio is 1.02.

Turning to TGCCGGACAG, the switch fluorescence ratio is 1.04.

For the sequence TTTTCTCAGA, the switch fluorescence ratio is 1.07.

With ATCGTCCAAT, the switch fluorescence ratio came out at 1.02.

For GAGAGGATGA, the switch fluorescence ratio was 1.02.

ATCTCATGTA: the switch fluorescence ratio turned out to be 1.02.

With TTGAGCATCA, the switch fluorescence ratio was 1.01.
